Laboratory results from PubChem BioAssay AID887 (National Center for Advancing Translational Sciences (NCATS), 2007).
Where “and” joins values, the source holds several entries; their conditions need not be identical. Equal entries are not always repeated. Screen size: about 74,000 compounds; about 1,100 (1.5%) were called active. The inconclusive results got no clear call from the source; some entries with a clear call stand among them for comparison. Calls follow the shape of the dose curve; as a rule, active = well fitted inhibition curve with a large enough effect; inconclusive = small, poorly fitted or top-dose-only effect; inactive = no such curve, though single readings can be large or run the other way. A potency beside an inconclusive call is a rough fit, not a confirmed value. Positions of bridges follow the written chain, without caps; N, C: chain ends. Non-standard residues stand in square brackets, D forms with d. Residues, ends and D or L forms follow the SMILES beside them. ξ: configuration not given here. *: point of attachment. ξDab(CH2SO3H) = NC(CCNCS(=O)(=O)O)C(=O)O; Heptanoyl(6-Me) = CC(C)CCCCC(=O)*; Dab = NCC[CH](N)C(=O)O
% is scaled to controls: 0 for no effect and ±100 for the full control effect; potency is read from the fitted curve at half-maximal effect; tags tell the direction and shape of the fitted curve.
Also: nearly all actives have a fitted effect of over 55% in size.

These molecules were tested against Polyunsaturated fatty acid lipoxygenase ALOX15 (Homo sapiens) (UniProt P16050) (assay: qHTS Assay for Inhibitors of 15-hLO (15-human lipoxygenase)). Details: purified 15hLO-1, xylenol orange hydroperoxide absorbance; activity change, negative = inhibition: at 57.1 µM (top of the series) unless noted.
Chain of UniProt P16050 (P16050 whole entry, looked up): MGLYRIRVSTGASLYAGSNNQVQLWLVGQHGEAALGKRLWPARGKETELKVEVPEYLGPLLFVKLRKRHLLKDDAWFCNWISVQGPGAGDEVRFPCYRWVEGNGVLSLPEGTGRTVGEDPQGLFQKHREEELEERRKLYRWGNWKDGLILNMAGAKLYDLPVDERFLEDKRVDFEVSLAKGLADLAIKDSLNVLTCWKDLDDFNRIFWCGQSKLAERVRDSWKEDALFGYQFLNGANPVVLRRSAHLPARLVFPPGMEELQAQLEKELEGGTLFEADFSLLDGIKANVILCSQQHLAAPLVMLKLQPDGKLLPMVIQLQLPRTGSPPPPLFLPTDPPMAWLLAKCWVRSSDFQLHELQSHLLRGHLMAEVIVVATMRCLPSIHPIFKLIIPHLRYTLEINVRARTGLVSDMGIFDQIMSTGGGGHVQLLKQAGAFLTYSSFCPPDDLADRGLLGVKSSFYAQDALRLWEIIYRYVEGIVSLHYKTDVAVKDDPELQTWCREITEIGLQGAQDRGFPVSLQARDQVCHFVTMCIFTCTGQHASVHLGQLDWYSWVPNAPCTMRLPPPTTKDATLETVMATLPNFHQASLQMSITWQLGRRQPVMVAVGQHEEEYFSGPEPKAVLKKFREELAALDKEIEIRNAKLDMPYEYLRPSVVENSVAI
Procedure, shortened: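 40 nM 15hLO-1 + cpd, 15 min RT; start w/ 50 uM AA (final), 6 min RT; stop/detect w/ 200 uM XO + 300 uM Fe(II) in 50 mM H2SO4, 30 min; A573/A405. Buffer 25 mM Hepes pH 7.5, 0.01% Triton X-100. No-enzyme wells as negative control.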
With `CNC(=O)[C@@]1(C)C=C[C@@H](Cc2ccccc2)N1C(=O)OC` the Potency was inconclusive: 39.8 µM [inhibitor, single point]. With `CCN(CC)CCN1C(=O)c2oc3ccccc3c(=O)c2C1c1cccc(Br)c1` (configuration not stated) the Potency was “inactive”. For `O=C(Nc1ccc2c(c1)OCO2)c1cnn2c1NC(c1ccco1)CC2C(F)(F)F` (configuration not stated), the Potency was inconclusive: 25.1 µM [inhibitor, partial curve, poor fit]. For `Cc1ccccc1-c1nc(Nc2ccncc2)c2ccccc2n1`, the Potency was inconclusive: 25.1 µM [inhibitor, partial curve]. `CCOc1ccc(C2c3c(oc4ccccc4c3=O)C(=O)N2c2ccc(C)cn2)cc1OC` (configuration not stated) was tested, and the Potency was “inactive”. For `Cc1cc(=O)oc2c(CN(C)Cc3ccccc3)c(O)ccc12`, the Potency was “inactive”. In the case of `CC1(C)c2ccccc2N2CCC(=O)NC21/C=C/c1ccco1` (configuration not stated), the Potency is reported as inconclusive: 39.8 µM [inhibitor, single point]. With `CC(=O)c1cccc(NC(=O)Nc2cc3sccc3n2C)c1` the Potency was active: 15.8 µM. `CC(=O)N1CCN(c2ccc(NCc3ccc(C)cc3)cc2)CC1` was tested, and the Potency was active: 12.6 µM. With `CCCc1[nH]nc2c1C(c1ccc(Br)s1)C(C#N)=C(N)O2` (configuration not stated) the Potency was active: 15.8 µM. In the case of `O=C(NCc1ccc(F)cc1)c1cc2n(n1)C(C(F)(F)F)CC(C1CC1)N2` (configuration not stated), the Potency is reported as inconclusive: 3.16 µM [inhibitor, single point]. `COc1cc(-c2nnc(SCC(=O)c3ccc(C)cc3)o2)cc(OC)c1OC` was tested, and the Potency was “inactive”. In the case of `COc1ccc(C(=O)c2ccccc2)c(O)c1O`, the Potency is reported as inconclusive: 6.31 µM [inhibitor, partial curve]. With `Cc1ccc(-c2nnn(CC(=O)N(CC(=O)NCc3ccccc3)c3cccc(C)c3C)n2)o1` the Potency was inconclusive: 15.8 µM [inhibitor, single point]. In the case of `O=C(COC(=O)CCC(=O)c1cccs1)NCc1ccco1`, the Potency is reported as inconclusive: 0.251 µM [inhibitor, full curve]. In the case of `COc1ccccc1-c1nnc2sc(-c3cc4ccccc4o3)nn12`, the Potency is reported as “inactive”. `FC(F)(F)c1ccccc1-c1ccc2ncnc(N3CCOCC3)c2c1` was tested, and the Potency was inconclusive: 20 µM [inhibitor, single point]. With `CN(C)C(=O)c1ccc(-c2nc(N3CCOCC3)c3ccccc3n2)cc1` the Potency was inconclusive: 31.6 µM [inhibitor, single point]. In the case of `CCCCOC(=O)C(C#N)c1nc2ccccc2nc1N1CCOCC1` (configuration not stated), the Potency is reported as “inactive”. `COc1ccc(NC(=O)c2cc3cc(OC)ccc3oc2=N)cc1` was tested, and the Potency was “inactive”. With `COc1ccc2c(c1)CCc1c(C(=O)N3CCCc4ccccc43)noc1-2` the Potency was inconclusive: 15.8 µM [inhibitor, partial curve]. With `CCOC(=O)C1CCCN(CC(O)COc2ccc(OC)cc2C(C)(C)C)C1` (configuration not stated) the Potency was “inactive”. For `CCOc1ccc(C(=O)NCCC(=O)NCCCC(=O)O)cc1`, the Potency was “inactive”. With `Cc1cccc(-n2c(SCc3cc(=O)n4ccsc4n3)nc3ccccc32)c1` the Potency was active: 12.6 µM. `COc1cccc(C(=O)N(Cc2ccco2)Cc2cc3cccc(C)c3[nH]c2=O)c1` was tested, and the Potency was inconclusive: 20 µM [inhibitor, partial curve]. For `O=C(NC1CCCCC1)C(c1ccco1)N(Cc1ccco1)C(=O)c1ccco1` (configuration not stated), the Potency was inconclusive: 7.94 µM [inhibitor, partial curve]. With `CCn1c(=N)c(C(=O)NC)cc2c(=O)n3cccc(C)c3nc21` the Potency was “inactive”. For `O=[N+]([O-])c1ccc2cn[nH]c2c1`, the Potency was inconclusive: 12.6 µM [inhibitor, single point]. In the case of `CC(=O)COc1ccc2c3c(c(=O)oc2c1)CCCC3`, the Potency is reported as “inactive”. With `CCC(c1nnnn1Cc1ccco1)N(CCc1ccccc1)Cc1cc2cccc(C)c2[nH]c1=O` (configuration not stated) the Potency was inconclusive: 31.6 µM [inhibitor, single point]. For `C=CCN1C(=O)C(O)(CC(=O)c2ccc(-n3cccc3)cc2)c2ccccc21` (configuration not stated), the Potency was inconclusive: 3.16 µM [inhibitor, full curve]. With `COc1ccc(C2C(C(C)=O)=C(C)N=c3s/c(=C\c4ccco4)c(=O)n32)c(OC)c1` (configuration not stated) the Potency was inconclusive: 39.8 µM [inhibitor, single point]. `Cc1cccc(C)c1-n1nnnc1S(=O)(=O)Cc1ccccc1Cl` was tested, and the Potency was inconclusive: 39.8 µM [inhibitor, single point]. `CCCC(C(=O)NCc1ccco1)N(C(=O)CNS(=O)(=O)c1ccc(Cl)cc1)C1CCCC1` (configuration not stated) was tested, and the Potency was active: 25.1 µM. `Cc1cc(Nc2ccccc2)nn1C(=O)c1ccccc1` was tested, and the Potency was inconclusive: 25.1 µM [inhibitor, partial curve]. In the case of `CS(=O)(=O)N1CCC2(CCCN(Cc3ccccc3)C2)CC1`, the Potency is reported as “inactive”. With `CC(C)C(=O)N1CCN(c2ccc(NC(=O)c3ccc(Br)o3)cc2)CC1` the Potency was “inactive”. `Cc1ccc(S(=O)(=O)Oc2ccc(N=Nc3ccc(-c4ccc(N=Nc5c(O)ccc6cc(S(=O)(=O)O)cc(S(=O)(=O)O)c56)c(C)c4)cc3C)cc2)cc1` was tested, and the Potency was inconclusive: 31.6 µM [inhibitor, partial curve, poor fit]. For `O=C(COC(=O)c1cc(-c2ccco2)nc2ccccc12)NCc1ccc2c(c1)OCO2`, the Potency was inconclusive: 25.1 µM [inhibitor, partial curve]. With `O=c1c2c3nc4ccccc4nc3n(Cc3ccccc3)c2ncn1Cc1ccco1` the Potency was inconclusive: 12.6 µM [inhibitor, partial curve]. With `Cc1ccc2nc3c(cc2c1)CN(Cc1ccco1)C(=NCC1CCCO1)S3` (configuration not stated) the Potency was “inactive”. In the case of `CCOC(=O)Cc1c(C)nc2c(-c3ccc(Cl)cc3)c[nH]n2c1=O`, the Potency is reported as “inactive”. For `O=C(Nc1ccccc1)N(O)c1ccc(Cl)cc1`, the Potency was inconclusive: 3.16 µM [inhibitor, full curve, poor fit]. `O=C(CSc1ncn(-c2ccccc2)n1)Nc1ccc2c(c1)OCCO2` was tested, and the Potency was inconclusive: 31.6 µM [inhibitor, partial curve]. In the case of `c1ccc(-c2cnc(-c3ccc(-c4ncc(-c5ccccc5)o4)cc3)o2)cc1`, the Potency is reported as inconclusive: 0.251 µM [inhibitor, single point]. With `CCc1nnc(NC(=O)CSc2nnc(-c3ccoc3C)n2-c2ccccc2)s1` the Potency was “inactive”. For `O=c1oc2c(O)c(O)cc3c(=O)oc4c(O)c(O)cc1c4c23`, the Potency was “inactive and inconclusive: 5.01 µM [inhibitor, partial curve]”. `Cc1csc(SCC(=O)c2ccc(S(=O)(=O)N3CCOCC3)cc2)n1` was tested, and the Potency was active: 20 µM. With `c1ccc2c(N3CCNCC3)nc(-c3ccc4c(c3)OCO4)nc2c1` the Potency was inconclusive: 39.8 µM [inhibitor, single point]. `COC(=O)c1ccccc1NC(=O)c1sc(=S)n(C)c1N` was tested, and the Potency was inconclusive: 15.8 µM [inhibitor, partial curve]. For `N#Cc1cc2c(nc1SCc1nc3ccccc3[nH]1)CCC2`, the Potency was active: 15.8 µM. For `N#CCCCSC1=C(C#N)C(c2ccccc2Cl)CC(=O)N1` (configuration not stated), the Potency was inconclusive: 25.1 µM [inhibitor, single point]. For `CCOC(=O)CCCCC(=O)c1[nH]c(=O)[nH]c1CSc1nc(C)cc(C)n1`, the activity change, negative = inhibition was inactive: 5.67% [at 11.4 µM]. `Cc1ccccc1Cn1cc(NC(=O)c2cc3nc(-c4ccco4)cc(C(F)(F)F)n3n2)cn1` was tested, and the Potency was inconclusive: 25.1 µM [inhibitor, single point]. `CC(C)CC1C(C#N)=C(N)SC(N)=C1C#N` was tested, and the Potency was inconclusive: 1.58 µM [inhibitor, partial curve]. For `COc1ccccc1C(=O)N1CCN(c2nc3cc(C)c(C)cc3cc2C#N)CC1`, the Potency was inconclusive: 12.6 µM [inhibitor, partial curve]. For `Cc1ccc(C)c(NS(=O)(=O)c2ccc(NC(=O)c3ccco3)cc2)c1`, the Potency was inconclusive: 12.6 µM [inhibitor, partial curve, poor fit]. `COc1ccc(C(=O)n2nc(-c3ccc(Cl)cc3)nc2N)cc1OC` was tested, and the Potency was “inactive”. In the case of `O=C(Nc1cccnc1)c1cc(-c2ccco2)on1`, the Potency is reported as inconclusive: 39.8 µM [inhibitor, single point]. In the case of `N#Cc1ccccc1-c1cncnc1NCc1cccnc1`, the Potency is reported as “inactive”. In the case of `CCC(C)C1NC(=O)C(CCNCS(=O)(=O)O)NC(=O)C(NC(=O)C(CCNCS(=O)(=O)O)NC(=O)C(NC(=O)C(CCNCS(=O)(=O)O)NC(=O)CCCCC(C)C)C(C)O)CCNC(=O)C(C(C)O)NC(=O)C(CCNCS(=O)(=O)O)NC(=O)C(CCNCS(=O)(=O)O)NC(=O)C(C(C)CC)NC1=O` (configuration not stated) ({Heptanoyl(6-Me)}-[ξDab(CH2SO3H)]T[ξDab(CH2SO3H)][Dab][ξDab(CH2SO3H)]II[ξDab(CH2SO3H)][ξDab(CH2SO3H)]T; lactam 4-C; configuration not given here), the Potency is reported as active: 3.16 µM. With `C=CCn1c(SCC(=O)N2CCOCC2)nc2scc(-c3ccco3)c2c1=O` the Potency was inconclusive: 15.8 µM [inhibitor, partial curve]. With `CCOC(=O)C1=C(C)NC(SCc2cc(=O)[nH][nH]2)=C(C#N)C1c1cccs1` (configuration not stated) the Potency was inconclusive: 31.6 µM [inhibitor, single point]. With `O[C@H](CN1CCN(c2cccc(Cl)c2)CC1)C(c1ccccc1)c1ccccc1` the Potency was inconclusive: 15.8 µM [inhibitor, single point]. In the case of `N#Cc1cccc(-c2cncnc2NCc2cccnc2)c1`, the Potency is reported as inconclusive: 31.6 µM [inhibitor, single point]. In the case of `O=C(O)[C@H]1CN(C/C=C/P(=O)(O)O)CCN1`, the Potency is reported as inconclusive: 39.8 µM [inhibitor, single point]. `O=C(CCCn1c(SCC(=O)c2ccc(O)c(O)c2)nc2ccccc2c1=O)NCC1CCCO1` (configuration not stated) was tested, and the Potency was inconclusive: 15.8 µM [inhibitor, partial curve].
